Data as given in paper PMC4336329 (PLoS ONE, 2015).
About 14,000 (4.5%) of roughly 310,000 compounds showed an effect of 50% or more. Effects have a minus sign here. Some of the results follow.

target: human ether-à-go-go-related gene (hERG) potassium channel (human, UniProt Q12809); experiment: primary screen, population patch clamp on CHO cells stably expressing hERG
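Note: peak tail current of the secondary pulse compared with the same well before compound.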

Chain of human ether-à-go-go-related gene (hERG) potassium channel (Q12809 whole entry, looked up): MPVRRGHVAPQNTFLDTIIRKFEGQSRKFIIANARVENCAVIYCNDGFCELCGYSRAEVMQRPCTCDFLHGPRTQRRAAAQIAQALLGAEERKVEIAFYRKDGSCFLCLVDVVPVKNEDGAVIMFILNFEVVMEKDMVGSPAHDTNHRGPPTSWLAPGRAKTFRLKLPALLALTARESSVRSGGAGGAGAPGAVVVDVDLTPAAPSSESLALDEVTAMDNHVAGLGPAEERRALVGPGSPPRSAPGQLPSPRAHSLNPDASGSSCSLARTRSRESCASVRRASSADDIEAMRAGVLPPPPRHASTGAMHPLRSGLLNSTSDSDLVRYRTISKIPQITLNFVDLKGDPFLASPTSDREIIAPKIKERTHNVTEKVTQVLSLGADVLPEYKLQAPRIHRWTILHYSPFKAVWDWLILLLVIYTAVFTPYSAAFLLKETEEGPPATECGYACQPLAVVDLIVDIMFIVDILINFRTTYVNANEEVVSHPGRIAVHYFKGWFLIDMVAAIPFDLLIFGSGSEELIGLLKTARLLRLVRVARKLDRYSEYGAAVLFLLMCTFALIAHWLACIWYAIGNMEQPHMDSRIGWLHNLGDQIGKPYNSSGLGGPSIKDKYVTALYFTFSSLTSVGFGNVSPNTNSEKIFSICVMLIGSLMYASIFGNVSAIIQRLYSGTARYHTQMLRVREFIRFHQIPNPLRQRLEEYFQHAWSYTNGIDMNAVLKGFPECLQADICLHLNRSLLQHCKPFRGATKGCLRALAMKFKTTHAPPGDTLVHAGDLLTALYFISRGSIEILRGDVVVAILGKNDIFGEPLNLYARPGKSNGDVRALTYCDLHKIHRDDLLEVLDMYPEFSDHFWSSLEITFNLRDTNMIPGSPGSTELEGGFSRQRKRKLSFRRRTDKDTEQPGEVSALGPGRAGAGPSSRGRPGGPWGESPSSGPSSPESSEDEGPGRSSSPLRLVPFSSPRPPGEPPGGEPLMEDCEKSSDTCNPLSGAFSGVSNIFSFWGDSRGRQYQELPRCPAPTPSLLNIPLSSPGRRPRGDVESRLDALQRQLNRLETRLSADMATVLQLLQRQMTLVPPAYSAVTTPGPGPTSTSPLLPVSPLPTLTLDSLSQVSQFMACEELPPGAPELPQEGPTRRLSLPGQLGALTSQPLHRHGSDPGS

Compound	hERG current change (%, negative = inhibition) at 10uM [%]
Cc1cccc(C(=O)NNC(=O)C2CCN(C(=O)OC(C)(C)C)CC2)c1	12.2
O=C(Nc1ccccc1F)c1ccc(Cn2cc(Br)cn2)cc1	-4.78
Cc1nn(C(C)C(=O)NNC(=S)Nc2ccc(F)cc2)c(C)c1[N+](=O)[O-] (stereo not shown)	13.4
Cc1nn(Cc2ccccc2)c(C)c1C(=O)OCC(=O)NC1CCS(=O)(=O)C1 (stereo not shown)	0.704
CCC1(c2ccc(F)cc2)NC(=O)N(CC(=O)Nc2ccc(N3CCCCC3)cc2)C1=O (stereo not shown)	-15.4
COCCN(CC1CCCN(C2Cc3ccccc3C2)C1)C(=O)CCSC (stereo not shown)	-45.8
O=C1N=C(N2CCOCC2)S/C1=C\C=C/c1ccccc1	-58.2
COc1cc(C(=O)NNC(=O)C2CSC3(C)CCC(=O)N23)cc(OC)c1OC (stereo not shown)	0.132
COc1ccccc1C1c2ccc3ccccc3c2Oc2ncn(CCCO)c(=N)c21 (stereo not shown)	-66.6
C[n+]1cn(Cc2ccc(C#N)cc2)c2ccccc21.[Cl-]	2.75
CCS(=O)(=O)c1nc(S(=O)(=O)c2ccc(Cl)cc2)c(N2CCCC2)s1	10.5
Cc1cccc(NC(=O)N2CCCC(CNC(=O)c3ccccc3Cl)C2)c1C (stereo not shown)	27.6
COCCCNC(=S)N/N=C/c1ccc(O)cc1O	8.36
Cc1ccc(CSc2nccc(-c3c(C)nc4ccccn34)n2)cc1	16.9
Cc1cccc(-n2c(SCC(N)=O)nc3c(c2=O)C2(CCCC2)Cc2ccccc2-3)c1	-13.1
CC1(C)CC(=O)NC=C(c2ccccc2)C1	5.84
CCOc1ccc(Nc2ccc(S(=O)(=O)N3CCN(C)CC3)cc2[N+](=O)[O-])cc1OCC	-10.7
O=C(NCc1ccccc1)C1CCN(C(=O)NCc2ccccc2)CC1	8.86
CCOC(=O)c1ccc2c(c1)[nH]c(=S)n2CC	4.88
Cn1c(=NC(=O)C2CC2)sc2cccc(F)c21	-15.7
O=C(CCCOc1ccccc1)Nc1nncs1	-5.59
Cc1cc(/C=C2\SC(=O)N(CC(=O)Nc3ccccc3F)C2=O)c(C)n1C	10.2

Compound	hERG current change (%, negative = inhibition) at 10uM [%]
CCOC(=O)c1sc(NC(=O)CN2C(=O)c3cccc4cccc(c34)C2=O)nc1C	15.3
CCn1ncc(Br)c1C(=O)Nc1cc([N+](=O)[O-])ccc1C	-13.1
O=C1c2ccccc2N2C(=O)c3ccccc3C2N1Cc1ccco1 (stereo not shown)	-27.4
O=C(NCc1ccc(Cl)cc1)c1cc(=O)nc2sc(-c3ccccc3)nn12	-2.29
O=C(COC(=O)c1nc(Cl)ccc1Cl)c1ccc(Cl)s1	8.38
O=[N+]([O-])c1ccc(-c2csc(N3CCc4ccccc4C3)n2)cc1	-4.54
CCc1ccc(S(=O)(=O)/N=C2\C=C(Nc3ccc(C(=O)O)cc3)C(=O)c3ccccc32)cc1	21.5
O=S(=O)(c1ccc(Cl)s1)N1CCN(CCc2ccccc2)CC1	-2.11
CC(C)NC(=O)CN(Cc1ccc(F)cc1)C(=O)CCC(=O)Nc1ccccn1	11.6
O=C1NN(c2ccccc2)C(=O)/C1=C/c1ccc(Sc2cccc3ccccc23)o1	8.89
CCN(C(=O)CN1C(=O)COc2ccc(S(=O)(=O)N3CCOCC3)cc21)c1ccc(OC)cc1	-20.9
CCOC(=O)Cc1csc(NC(=O)c2cc3ccccc3o2)n1	-16.5
NC(=O)CSc1nnc(-c2ccc(S(=O)(=O)N3CCCC3)cc2)n1CC1CCCO1 (stereo not shown)	-1.83
Nc1ncnc2c1ncn2[C@@H]1O[C@H](CO)C[C@H]1O	15.8
O=C(COC(=O)/C=C/c1ccccc1)NCCNC(=O)COC(=O)/C=C/c1ccccc1	5.3
COCC1CCCCN1C(=O)c1ccc2oc(CCCc3ccccc3)nc2c1 (stereo not shown)	-14.3
COCc1nnc(NC(=O)C2CC(=O)N(C3CCCCC3)C2)s1 (stereo not shown)	0.298
Cc1ccc(NS(=O)(=O)c2ccc(CCC(=O)O)cc2)cc1	5.4
C/C(=N\NC(=O)c1csc2ccccc12)c1ccc(O)cc1	2.77
S=C(Nc1ccc(Cl)cc1)Nc1ccc2c(c1)OCCO2	16
COc1cc([N+](=O)[O-])ccc1NC(=O)c1cccc(NC(=O)C(C)C)c1	17.1
Clc1ccccc1C1SCC2Nc3ccccc3CN21 (stereo not shown)	7.1

Compound	hERG current change (%, negative = inhibition) at 10uM [%]
Cc1ccc(CNC(=O)Cn2cc(C(F)(F)F)ccc2=O)cc1	-5.92
Cc1cc([N+](=O)[O-])nn1CC(=O)Nc1sc2c(c1C(N)=O)CCCC2	7.62
COc1ccc(F)cc1COc1nc(C)nc2ccccc12	-10.4
O=C(Cn1cncc1-c1ccc([N+](=O)[O-])cc1)Nc1ccccc1F	-12.6
O=C(Cc1cccc2ccccc12)Nc1ccc(N2CCOCC2)cc1	15.3
Cl.OC(CCN1CCCCC1)(c1ccccc1)C1CCCCC1 (stereo not shown)	-21.4
CCOC(=O)c1sc2c(c1C)c(=O)n(Cc1ccccc1)c(=O)n2CCN(C)C	-58.9
CCOC(=O)c1c(N)sc(C(=O)OC)c1C	10.7
COc1ccccc1/C=N/NC1=NCCCCC1.Cl	-13
C/C(=N/NC(=O)c1ccc(C(C)(C)C)cc1)c1ccccn1	-10.1
Oc1cc(-n2cccn2)c(O)cc1-n1cccn1	21
CCCCCCCC(=O)OCC(=O)[C@@]1(O)CC[C@H]2[C@@H]3CCC4=CC(=O)CC[C@]4(C)[C@H]3[C@@H](O)C[C@@]21C	18.6
CCOc1ccc(OCCC(=O)OCC(=O)Nc2ccc(C)c(S(=O)(=O)N3CCCCC3)c2)cc1	5.34
COc1ccc(-c2csc(Nc3ccc(S(=O)(=O)Nc4cc(C)on4)cc3)n2)cc1C	9.49
CC(OC(=O)c1ccc(Cl)nc1)C(=O)N1CCc2ccccc21 (stereo not shown)	-3.81
CCOc1cc(C2C(C(=O)OC(C)C)=C(C)NC3=C2C(=O)CCC3)cc([N+](=O)[O-])c1O (stereo not shown)	-6.02
Cc1ccc2nc(N(CCN(C)C)C(=O)c3ccc4ccccc4c3)sc2c1.Cl	15.9
CCOC(=O)CC(NS(=O)(=O)Cc1ccccc1)c1ccc(C)cc1 (stereo not shown)	-5.46
CS(=O)(=O)Nc1ccc(C2=NN(C(=O)C3CCCCC3)C(c3cccs3)C2)cc1 (stereo not shown)	-22.8
O=S(=O)(Nc1ccc2nc(-c3ccco3)[nH]c2c1)c1ccccc1	-58.4
O=C(NCCc1ccccc1)C1CC(c2ccccc2O)=NO1 (stereo not shown)	-6.84
CCN1CCN(C(=O)C(N)Cc2ccccc2)CC1 (stereo not shown)	22

Compound	hERG current change (%, negative = inhibition) at 10uM [%]
CN1CCN(c2ccc(NC(=O)C(C)(C)C)cc2)CC1	11.8
O=C(COc1ccc2ccc(=O)oc2c1)Nc1cc([N+](=O)[O-])ccc1F	3.77
CCOc1ccc(NC(=O)[C@H](C)NC(=O)C2CC(=O)N(c3ccc(OC)cc3)C2)cc1 (stereo partly shown)	27.7
CN(C)CCNC(=O)Cn1c(=O)c2cccn2c2ccc(F)cc21	5.12
CCSc1nc(N)c(NC(=O)c2ccc(Br)o2)c(=O)[nH]1	11.5
Cc1ccc2nc(COc3ccc(N(C)S(=O)(=O)c4ccccc4)cc3)cc(=O)n2c1	-56
Cc1nn(-c2ccccc2)c2nc(-c3ccco3)cc(C(=O)O)c12	1.8
Cc1cccc(C)c1NC(=O)N1CCC(n2cnc3ccccc32)CC1	8.94
COc1ccc(N2CCN(S(=O)(=O)CCNC(=O)c3cccs3)CC2)cc1	9.82
O=C(NC(=S)Nc1nc2c(ccc3ccccc32)s1)c1cccs1	21.6
Cc1ccc2cc(CN(c3ccccc3C)S(=O)(=O)c3ccccc3)c(=O)[nH]c2c1	1.8
CC(NC(=O)CCC(=O)c1cccs1)c1ccccc1 (stereo not shown)	11.7
O=C(CSc1nnc(NC(=O)c2ccc(S(=O)(=O)N3CCOCC3)cc2)s1)Nc1ccccc1C(F)(F)F	16.1
COc1ccc(C(=O)N(Cc2ccccc2)Cc2cc3cc4c(cc3[nH]c2=O)OCCO4)cc1	-6.4
Fc1ccc(C2NCCc3[nH]cnc32)cc1 (stereo not shown)	17.4
Cn1c(N)c(C(=O)CSc2nnc(C3CC3)n2-c2ccccc2)c(=O)n(C)c1=O	1.51
CC1CN(C(=O)Nc2cccc(Cl)c2)C2(CCCCCC2)O1 (stereo not shown)	6.75
C#CCOCCOCCOCCNc1nc(N2CCN(C(=O)[C@H]([C@@H](C)CC)n3cc([C@@H](N)Cc4ccc(O)cc4)nn3)CC2)nc(N2CCN(C(=O)[C@H]([C@@H](C)CC)n3cc([C@@H](N)CC(C)C)nn3)CC2)n1.Cl	0.378
CCOc1ccc(OCC)c(-c2c(=O)n(OCc3ccc(C(C)(C)C)cc3)c3ccccc3[n+]2[O-])c1	21.3
